In the supplement of paper PMC9446081 one finds relative growth data, which are given here for 39 compounds.

About 220 (0.56%) of roughly 39,000 compounds showed activity. The list shows a part of the results.
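Note: static incubation at 37 °C against the wild-type strain, values averaged over two biological replicates.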

For the experiment, the system named is Escherichia coli K-12 BW25113. The experiment can be described thus: relative growth (OD600 normalised to plate interquartile mean) (fraction); higher = less growth inhibition, active = 0.2 or less. The settings on record: 50 µM; LB; incubation time: overnight (16-24 h).
With `CC1(C)SC2C(NC(=O)C(NC(=O)N3CCNC3=O)c3ccccc3)C(=O)N2C1C(=O)[O-].[Na+]` (centres undefined), the relative growth is inactive: 0.263.
With `C[C@@H]1CN([C@H](C)CO)C(=O)c2cccc(NC(=O)NC3CCCCC3)c2O[C@H]1CN(C)Cc1ccc(Cl)c(Cl)c1`, the relative growth is inactive: 0.96.
Then `O=C1c2ccccc2[C@@]2(Cc3ccccc3N(C3CC3)C2=O)[C@H](c2ccc(CO)cc2)N1Cc1ccccc1`, with inactive: 1.01; and `Cc1[nH]c(=O)n(C(C)(C)C)c(=O)c1C`, with inactive: 1.
With `C[C@H]1CN([C@@H](C)CO)C(=O)c2cc(NC(=O)CCN3CCOCC3)ccc2O[C@H]1CN(C)Cc1ccc(C(=O)O)cc1` the figure was inactive: 1.01; with `COCC(=O)N1C[C@@H](C)[C@@H](OC)CN(C)C(=O)c2cc(NC(=O)c3ccc(F)cc3)ccc2OC[C@@H]1C`, inactive: 1.01; with `O[C@@H](CCl)CN1CC[N+]2(CC1)CC[N+]1(CCN(C[C@@H](O)CCl)CC1)CC2`, inactive: 1.
With `CC(C)c1cc2c(cc1S(=O)(=O)O)[C@@]1(C)CCC[C@@](C)(C(=O)O)[C@@H]1CC2` the figure was inactive: 0.998; with `Cc1ccc(S(=O)(=O)N(C)C[C@H]2Oc3c(NC(=O)c4cnccn4)cccc3C(=O)N([C@H](C)CO)C[C@@H]2C)cc1`, inactive: 0.975.
For the compound `O=C(C[C@H]1CC[C@@H]2[C@H](COC[C@H](O)CN2C(=O)Nc2cc(Cl)cc(Cl)c2)O1)N1CCOCC1`, the relative growth is inactive: 0.985.
With `COc1ccc(S(=O)(=O)N(C)C[C@H]2OCCCC[C@H](C)Oc3ccc(NC(=O)CCC(F)(F)F)cc3C(=O)N([C@@H](C)CO)C[C@@H]2C)cc1` the figure was inactive: 0.929; with `C[C@@H]1CN([C@@H](C)CO)C(=O)CCCn2nncc2CO[C@H]1CN(C)S(=O)(=O)c1cccc(C#N)c1`, inactive: 0.966; with `COCCOC(=O)N1C(=O)[C@@]2(c3cc(C#CCCO)ccc31)[C@H](c1ccc(O)cc1)N1[C@H](c3ccccc3)[C@H](c3ccccc3)OC(=O)[C@H]1[C@@H]2C(=O)NC[C@H](O)c1ccccc1`, inactive: 1.01.
Regarding `C[C@@H]1CCCCO[C@H](CN(C)C(=O)Cc2ccccc2)[C@@H](C)CN([C@H](C)CO)C(=O)c2cc(NC(=O)C3CCCCC3)ccc2O1`, the relative growth was inactive: 0.978.
Then `C[C@@H]1CCCCO[C@@H](CN(C)C(=O)C2CCCCC2)[C@@H](C)CN([C@H](C)CO)C(=O)c2cc(NC(=O)Cc3ccccc3)ccc2O1`, with inactive: 0.998; and `CC(C)(O)C#Cc1ccc([C@@H]2[C@H](CO)N3CCCCN(S(C)(=O)=O)C[C@@H]23)cc1`, with inactive: 1.04; and `NCC(=O)NC1CCCCC1`, with inactive: 1.01.
With `Cc1cc(C(=O)Nc2cccc3c2O[C@H](CN(C)Cc2ccccc2)[C@@H](C)CN([C@H](C)CO)C3=O)n(C)n1` the figure was inactive: 1.
For the compound `C[C@H]1CN([C@@H](C)CO)C(=O)c2cc(NC(=O)C3CC3)ccc2O[C@H]1CN(C)S(=O)(=O)c1cccs1`, the relative growth was inactive: 0.998.
Take `CC(=O)N[C@@H]1CC[C@@H](CCNC(=O)C2CC2)O[C@@H]1CO`: the relative growth was inactive: 0.988.
Take `COCC(=O)N1C[C@H](C)[C@@H](OC)CN(C)C(=O)c2cc(NC(=O)Nc3ccccc3)ccc2OC[C@@H]1C`: the relative growth is inactive: 1.03.
Then `C[C@@H]1CN([C@H](C)CO)S(=O)(=O)c2ccc(C#CC3CC3)cc2O[C@H]1CN(C)C(=O)c1cccc(F)c1`, with inactive: 1.02.
`Cc1cnccc1CN1C[C@H](C(=O)O)CC1=O`: the relative growth is inactive: 1.02.
With `Cc1noc(C)c1S(=O)(=O)Nc1ccc2c(c1)C(=O)N([C@@H](C)CO)C[C@@H](C)[C@@H](CN(C)S(C)(=O)=O)O2` the figure was inactive: 1.01; with `COc1ccc([Si](C)(C)[C@H]2[C@H](CCn3cc([C@H](O)c4ccccc4)nn3)O[C@@]3(C(=O)N(Cc4ccc(N5CCC5=O)cc4)c4ccccc43)[C@@H]2C)cc1`, inactive: 1.02; with `O=C(C[C@H]1CC[C@@H]2[C@H](COC[C@H](O)CN2C(=O)c2ccc3c(c2)OCO3)O1)NCCN1CCCCC1`, inactive: 1.01.
Regarding `C[C@H]1CN([C@@H](C)CO)C(=O)CCCn2cc(nn2)CO[C@H]1CN(C)S(=O)(=O)c1ccc(-n2cccn2)cc1`, the relative growth is inactive: 0.993.
`Cn1cc(C(=O)N2CC[C@H]3[C@@H]2CCN3S(C)(=O)=O)cn1`: the relative growth was inactive: 0.99.
With `O=C(C[C@@H]1CC=CCC[C@H](Cc2ccc(F)cc2)C(=O)OC[C@H](Cc2c[nH]c3ccccc23)NC1=O)N[C@H](CO)Cc1ccccc1` the figure was inactive: 1.01; with `CCCc1cc(=O)[nH]c(=S)[nH]1`, inactive: 1.05; with `CC1(C)CC[C@]2(C(=O)O[C@@H]3OC[C@@H](O)[C@H](O)[C@H]3O)CC[C@]3(C)C(=CC[C@H]4[C@@]5(C)C[C@@H](O)[C@H](O)[C@@](C)(CO)[C@@H]5[C@H](O)C[C@]43C)[C@@H]2C1`, inactive: 0.995.
Take `C[C@H](CO)N1C[C@H](C)[C@@H](CN(C)C(=O)Nc2ccccc2)Oc2c(NC(=O)c3ccc(-c4nccs4)cc3)cccc2C1=O`: the relative growth is inactive: 0.975.
As for `CC(C)NC(=O)Nc1ccc2c(c1)C(=O)N([C@H](C)CO)C[C@@H](C)[C@H](CN(C)C(=O)Nc1ccc3c(c1)OCO3)O2`, the relative growth was inactive: 0.969.
With `NC(=O)c1c(N)c(C(N)=S)n2c1CCC2` the figure was inactive: 1.02; with `C[C@H](CO)N1C[C@H](C)[C@H](CN(C)C(=O)Nc2ccc3c(c2)OCO3)Oc2ccc(NC(=O)CCN3CCOCC3)cc2CC1=O`, inactive: 1.03; with `O=C(NCCCN1CCOCC1)[C@H]1[C@H](CO)[C@H]2Cn3c(cccc3=O)[C@@H]1N2C(=O)NC1CCCC1`, inactive: 1.
For the compound `O=C(C[C@@H]1C[C@@H]2c3cc(NC(=O)c4ccc5c(c4)OCO5)ccc3O[C@@H]2[C@H](CO)O1)NCCN1CCCCC1`, the relative growth is inactive: 1.02.
Then `CC(C)NC(=O)Nc1cccc2c1O[C@H](CN(C)S(=O)(=O)c1ccc(F)cc1)[C@@H](C)CN([C@@H](C)CO)C2=O`, with inactive: 1; and `C[C@@H]1CN([C@@H](C)CO)C(=O)c2cc(NC(=O)Nc3cccc4ccccc34)ccc2O[C@@H](C)CCCCO[C@H]1CN(C)S(=O)(=O)c1cccs1`, with inactive: 1.06.
